The full ranking holds about 33,000 sequences; the median of “E-score (-0.5 to 0.5)” is about -0.036, and the highest 2% start at about 0.37. This is one part of the list.
Target: T1, Yer064c (UniProt P40041)
T1 sequence: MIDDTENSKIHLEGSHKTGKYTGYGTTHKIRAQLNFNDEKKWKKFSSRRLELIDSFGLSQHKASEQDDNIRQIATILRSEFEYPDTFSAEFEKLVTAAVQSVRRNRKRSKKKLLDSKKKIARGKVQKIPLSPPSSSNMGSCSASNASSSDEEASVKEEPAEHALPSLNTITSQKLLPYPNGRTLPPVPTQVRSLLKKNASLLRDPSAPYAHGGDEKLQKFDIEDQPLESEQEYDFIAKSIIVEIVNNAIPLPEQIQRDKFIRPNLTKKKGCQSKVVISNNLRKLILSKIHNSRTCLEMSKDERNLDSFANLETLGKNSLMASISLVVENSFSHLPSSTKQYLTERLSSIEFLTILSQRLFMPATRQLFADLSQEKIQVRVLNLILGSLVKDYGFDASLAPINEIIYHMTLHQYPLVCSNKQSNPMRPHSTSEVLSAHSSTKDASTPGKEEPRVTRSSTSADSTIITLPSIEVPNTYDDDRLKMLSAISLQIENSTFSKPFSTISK
Experiment: PBM E-score (8-mer binding enrichment) (E-score (-0.5 to 0.5)); higher = stronger / more preferred TF binding; most listed sequences are background and not binding sites
Details: protein concentration: 200 nM; construct: GST-full length
Method: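 Universal 'all 10-mer' protein binding microarrays (Agilent AMADID 015681) probed with GST-tagged S. cerevisiae TFs (full-length or DBD) made by in vitro transcription/translation (PURExpress), about 100-200 nM. Bound TF was detected with fluorescent anti-GST. Each ungapped 8-mer (which stands for itself and its reverse complement) is scored by the PBM enrichment score (E-score), a modified Wilcoxon-Mann-Whitney statistic from -0.5 to +0.5, computed with the Universal PBM Analysis Suite. Scale: above 0.35 generally sequence-specific binding.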

Row | Sequence | PBM E-score
1 | GCTCGCGA | -0.0403
2 | GATAGGTA | -0.0911
3 | AATCCTGG | 0.0312
4 | CGCCGTGC | -0.269
5 | CCGTGAGG | -0.251
6 | CGATACTC | 0.00498
7 | CCCAGGCA | -0.305
8 | AACGGCCG | -0.139
9 | AGACGTAC | -0.0439
10 | AACCTCTC | -0.192
11 | TGTTAGAA | -0.00632
12 | ACACCTAT | -0.123
13 | GCCTCTCA | -0.288
14 | CATCCCGA | 0.0689
15 | GTATAAAA | 0.0365
16 | GGCTGGGA | -0.202
17 | GTAACTTA | 0.166
18 | GGTTTCAC | -0.11
19 | TCGTTAGA | 0.0333
20 | ACGAGTGA | 0.0355
21 | ATGCGGAG | -0.161
22 | AGTTCTAT | -0.00379

Row | Sequence | PBM E-score
23 | ACAACATG | 0.0559
24 | CTGTTGGC | -0.169
25 | GTGAACAC | -0.0561
26 | ATATATTA | 0.104
27 | GGCGCGAA | -0.0884
28 | AGTGACCA | 0.0284
29 | AGTAAGTG | -0.0587
30 | TCTTAGCA | -0.078
31 | ACACGCAC | -0.0662
32 | TCCGAACA | -0.0345
33 | AAAGGGGA | -0.284
34 | ACACTGTG | -0.0233
35 | CGCGCGAC | -0.0181
36 | CAGAAGGG | -0.0985
37 | CCGCCAGA | -0.0157
38 | GACACACA | 0.152
39 | ATCCGCCC | -0.198
40 | ACGCCACG | -0.096
41 | CAGCAGCC | -0.275
42 | CCCATGCC | -0.231
43 | CACGCAAC | 0.0612
44 | AACACCTA | -0.0595

Row | Sequence | PBM E-score
45 | ACGGTCAC | -0.254
46 | GCTACCCC | -0.148
47 | CGTACCAC | -0.211
48 | GATAAGCC | -0.206
49 | CCGCTCCA | -0.214
50 | ACCCACCG | 0.0677
51 | GTAATCAC | 0.413
52 | AGCGCACA | -0.116
53 | ATCGGGAA | -0.0964
54 | CGTAGTTA | -0.00038
55 | CCGATCAG | -0.0636
56 | TACCCAGA | 0.117
57 | CACGCGTG | 0.126
58 | ACGTTAAT | 0.148
59 | CACCGAAC | 0.0132
60 | AACCGTAC | -0.0826
61 | CCCCGTTC | -0.0761
62 | GCGGCCAA | -0.0571
63 | ATTCCTGG | 0.068
64 | GAAGGGGA | -0.0816
65 | ATTACTAG | 0.0126
66 | ACATGGGA | -0.204

Row | Sequence | PBM E-score
67 | GGCTTGTA | -0.155
68 | CCCGTAAA | 0.0363
69 | CATATTAG | 0.0202
70 | AGGCTCCA | -0.106
71 | GACCTTCC | -0.217
72 | GTATGTAA | 0.062
73 | GACCGGTC | -0.369
74 | ACACGGAC | -0.155
75 | CACAATTA | 0.0532
76 | CACACACC | -0.0381
77 | CTCCGGCC | -0.246
78 | CATCTCAC | 0.00674
79 | CTCTCTCA | 0.0661
80 | GTCACATA | 0.323
81 | AACCGATC | -0.103
82 | AGCACCAA | -0.0459
83 | ACATCGTG | -0.0442
84 | AAGGATTG | 0.0164
85 | AAGTTTGT | -0.0737
86 | CCATCCGC | -0.118
